Laboratory results published in PubChem BioAssay AID686978 (National Center for Advancing Translational Sciences (NCATS), 2013).
Values joined by “and” are separate entries in the source; they are usually repeats but may differ in a detail not shown here. Equal entries are not always repeated. The whole screen tested about 420,000 compounds, of which about 64,000 (15%) were called active. Inconclusive results, whose numbers are uncertain, are shown with a selection of clear calls. Calls follow the shape of the dose curve; as a rule, active = well fitted inhibition curve with a large enough effect; inconclusive = small, poorly fitted or top-dose-only effect; inactive = flat fitted curve, though single readings scatter. No potency is given beside an inconclusive call; the fits are too rough.
% is scaled to controls: 0 for no effect and ±100 for the full control effect; potency is read from the fitted curve at half-maximal effect; tags tell the direction and shape of the fitted curve.

Test: qHTS for Inhibitors of human tyrosyl-DNA phosphodiesterase 1 (TDP1): qHTS in cells in absence of CPT; also: nearly all actives have a fitted effect of over 55% in size
Details: DT40 Tdp1-/- hTDP1 cells, no CPT, ATP luminescence, 48 h; activity change, negative = growth inhibition: at 46.2 µM (top of the series)
How it was run: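 Compound effects on proliferation are scored in DT40 Tdp1-/-;hTDP1 cells in the absence of CPT. ATP levels (CellTiter-Glo luminescence) are recorded after a ≥48 hr, 37 °C incubation.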
For `Cc1ccc(Nc2ncnc3sccc23)c(C)c1`, the Potency was inconclusive [inhibitor, single point]. For `Cc1ccc2nc(Cl)c3cc(C(=O)N4CCCCC4)sc3c2c1`, the Potency was “inactive”. For `COc1c(F)c(F)c(C(=O)Nc2ccc(N3CCN(C(C)=O)CC3)c(Cl)c2)c(F)c1F`, the Potency was inconclusive [inhibitor, partial curve]. In the case of `c1ccc(-c2nc3cnccn3c2Nc2ccc3c(c2)OCCO3)cc1`, the Potency is reported as inconclusive [inhibitor, partial curve]. In the case of `CCn1c(SCc2nc3ccccc3[nH]2)nnc1-c1cccs1`, the activity change, negative = growth inhibition is reported as inconclusive: -38.9% [inhibitor]. For `COC(=O)c1cc(S(=O)(=O)NCC2CCN(Cc3cccc(F)c3)CC2)cn1C`, the Potency was inconclusive [inhibitor, single point]. With `COc1ccc(CCNC(=O)c2cc(=O)c3cc(C)c(C)cc3o2)cc1OC` the Potency was active: 7.31 µM. In the case of `COc1cccc(N(CC(=O)N2CCN(c3ccccc3OC)CC2)S(C)(=O)=O)c1`, the activity change, negative = growth inhibition is reported as inconclusive: -30.7% [inhibitor]. In the case of `O=C1CNC(=S)N1CCc1ccc(O)c(O)c1`, the Potency is reported as inconclusive [inhibitor, single point]. For `O=C1S/C(=C\c2ccc(Cl)cc2)C(=O)N1CCn1cnnn1`, the Potency was inconclusive [inhibitor, partial curve]. For `COc1ccc(N(C(=O)Cn2nnc3ccccc32)C(C(=O)NCc2ccccc2)c2ccc(F)cc2)cc1` (configuration not stated), the Potency was inconclusive [inhibitor, partial curve]. For `CN(C1CCCCC1)C(CNS(=O)(=O)c1ccccc1)c1ccccc1` (configuration not stated), the Potency was inconclusive [inhibitor, partial curve]. With `NNC(=O)c1ccc(CN2CCCCC2)o1` the Potency was “inactive”. For `Cn1nnc2c(NCc3c(F)cccc3F)ncnc21`, the Potency was “inactive”. With `COc1cc(C(=O)N2CCN(C(=O)c3cc(-c4ccc(Br)cc4)n[nH]3)CC2)cc(OC)c1OC` the Potency was active: 25.9 µM. For `CN1CCN(C(c2ccc(F)cc2)c2nnnn2Cc2cccs2)CC1` (configuration not stated), the Potency was “inactive”. In the case of `CCN(Cc1ccncc1)Cc1ccc(Br)cc1`, the activity change, negative = growth inhibition is reported as inconclusive: -30.2% [inhibitor]. With `CC(=O)N1CCSc2ccc(S(=O)(=O)NCc3ccccc3)cc21` the Potency was inconclusive [inhibitor, partial curve]. With `c1ccc(CN2CCC(Nc3nc(-c4cccnc4)nc4ccccc34)CC2)cc1` the Potency was active: 13 µM. For `Cn1c(=O)c2c(nc(SCC(=O)Nc3ccc(F)c(F)c3)n2Cc2ccccc2F)n(C)c1=O`, the Potency was inconclusive [inhibitor, full curve]. For `CC1CCCCC12NC(=O)N(CC(=O)N1CCN(Cc3ccc(C#N)cc3)CC1)C2=O` (configuration not stated), the Potency was active: 7.31 µM. With `CC1CCC(C(O)(C(=O)c2ccccc2)c2ccccc2)C(=O)C1` (configuration not stated) the Potency was inconclusive [inhibitor, single point]. In the case of `Cc1cc(C)cc(N(C(C)C(=O)NC2CCCC2)S(C)(=O)=O)c1` (configuration not stated), the Potency is reported as “inactive”. In the case of `O=C(Cn1cnc([N+](=O)[O-])c1)Nc1ccccc1C(F)(F)F`, the Potency is reported as inconclusive [inhibitor, single point]. In the case of `O=C1CCCCCN1CP(=O)(O)CCc1ccccc1`, the Potency is reported as “inactive”. For `CCN(c1ccccc1)S(=O)(=O)c1cccc(C(=O)N2CCN(S(=O)(=O)c3ccccc3)CC2)c1`, the Potency was inconclusive [inhibitor, single point]. With `O=C(Nc1ccc(Cl)cc1)N(Cc1cccs1)Cc1cccs1` the Potency was inconclusive [inhibitor, single point]. For `COCCNC(=O)C(=O)Nc1cc2c3c(c1)CC(=O)N3CCC2`, the Potency was inconclusive [inhibitor, single point]. In the case of `Cc1n[nH]c(C)c1S(=O)(=O)N1CCN(S(=O)(=O)c2ccccc2C#N)CC1`, the Potency is reported as “inactive”. For `Cc1ccnc(NC(=O)C(Cc2ccccc2)NC(=O)c2ccccc2)c1` (configuration not stated), the Potency was active: 16.4 µM. For `Cc1ccc2c(C(=O)CNC3=NCCS3)c(C)[nH]c2c1`, the Potency was inconclusive [inhibitor, single point]. For `O=C(NCCc1ccc(Cl)cc1)C1CCN(S(=O)(=O)c2ccc3[nH]ccc3c2)CC1`, the Potency was inconclusive [inhibitor, single point]. In the case of `CS(=O)(=O)Nc1ccc(C(=O)CC(=O)Nc2ccc([N+](=O)[O-])cc2)cc1`, the Potency is reported as “inactive”. For `Cc1cccc(NC(=O)c2ccc(OCc3c(C)noc3C)cc2)c1`, the Potency was inconclusive [inhibitor, partial curve]. In the case of `CSc1ccccc1NC(=O)CN(C)Cc1ccc(Br)cc1`, the Potency is reported as inconclusive [inhibitor, single point]. With `COc1ccc(-c2nn(-c3ccccc3)cc2C(=O)Nc2cccc(C(=O)O)c2)cc1[N+](=O)[O-]` the Potency was inconclusive [inhibitor, partial curve, poor fit]. In the case of `COc1ccc(-c2noc(CNC(=O)COc3cccc(C)c3C)n2)cc1`, the Potency is reported as active: 20.6 µM. For `Cc1occc1C(=O)N/N=C/c1ccc(N(C)C)cc1`, the Potency was “inactive”. For `Cc1onc(-c2ccccc2Cl)c1C(=O)c1ccccc1`, the Potency was inconclusive [inhibitor, single point]. In the case of `COc1cc(OC)c(C(=O)Nc2cccc3ccccc23)cc1OC`, the Potency is reported as inconclusive [inhibitor, single point]. With `O=C(C(Cc1ccccc1)n1cccc1)N1CCN(C2CCCCC2)CC1` (configuration not stated) the Potency was inconclusive [inhibitor, single point]. In the case of `Cc1nc2ccccc2nc1OCC(=O)N1CCN(c2ccccc2)CC1`, the Potency is reported as inconclusive [inhibitor, single point]. In the case of `O=C(COCc1cc(-c2ccc3c(c2)OCO3)on1)Nc1cc(Cl)ccc1O`, the Potency is reported as inconclusive [inhibitor, single point]. For `O=C(c1ccncc1)N1CCN(c2ccc3ccccc3n2)CC1`, the Potency was inconclusive [inhibitor, partial curve, poor fit]. For `Cc1occc1C(=O)N1CCCC(Nc2ccc(C(C)C)cc2)C1` (configuration not stated), the Potency was inconclusive [inhibitor, single point]. For `CN1C(=S)N(c2cccnc2)C(=O)/C1=C\c1ccc(N(C)C)cc1`, the Potency was inconclusive [inhibitor, single point]. For `Cc1oc(-c2ccc(C(F)(F)F)cc2)nc1CN(Cc1ccccn1)C[C@@H]1CCC(=O)N1`, the Potency was inconclusive [inhibitor, single point]. With `CCOc1ccc(NC(=S)Nc2cccnc2)cc1` the Potency was “inactive”. For `COc1cccc(/C=N/NC(=O)c2ccc(-n3cnnn3)cc2)c1`, the Potency was “inactive”. With `CC(C)(C)OC(=O)NCCCC[C@H](NC(=O)c1[nH]cnc1C(=O)Nc1ccc(Cl)cc1)C(=O)OC(C)(C)C` the Potency was active: 16.4 µM. In the case of `Cc1noc2ncnc(Oc3ccc(C(C)(C)C)cc3)c12`, the Potency is reported as “inactive”. With `CCCOc1ccccc1OCC(=O)N1CCN(S(=O)(=O)c2ccc(Cl)cc2)CC1` the Potency was “inactive”. With `CCN(CC)S(=O)(=O)c1ccc(N2CCOCC2)c(NC(=O)c2ccco2)c1` the Potency was inconclusive [inhibitor, partial curve]. In the case of `CCN(CC)S(=O)(=O)c1ccc(-n2cnc3cc(C)c(C)cc32)nc1`, the Potency is reported as inconclusive [inhibitor, single point]. For `CC(=O)c1ccc(NS(=O)(=O)c2cccc(C)c2)cc1`, the Potency was “inactive”. With `Cc1cccnc1NC1CCCCC1` the Potency was “inactive”. In the case of `CC(=O)Nc1ccc(SCCN2CC[C@@H](C(C)(C)C)CCC2=O)cc1`, the Potency is reported as active: 12.6 µM. With `O=C(CN1CCN(c2ccccc2F)CC1)NC(=O)NCc1ccccc1` the Potency was inconclusive [inhibitor, single point]. In the case of `COc1ccc2c(c1[N+](=O)[O-])CCC/C2=N/OC(=O)c1cccc2ccccc12`, the Potency is reported as inconclusive [inhibitor, partial curve]. For `O=C(CN1CCCC1)Nc1ccc(-c2nc3cc(NC(=O)CN4CCCC4)ccc3o2)cc1`, the Potency was active: 11.6 µM. With `CCCCn1c(Oc2ccc(C(=O)OC)cc2)nc2c1c(=O)n(C)c(=O)n2C` the Potency was active: 11.2 µM. For `Cc1ccc(-c2cn(-c3ccccc3)c3[n+]2CCCS3)cc1`, the Potency was active: 7.3 nM and active: 366 nM. For `CCOC(=O)C(CC)Sc1nc2c(c(=O)[nH]c(=O)n2C)n1C/C=C(/C)Cl` (configuration not stated), the Potency was active: 13 µM. With `O=C(NCCCCNC(=O)c1ccco1)c1ccco1` the Potency was “inactive”. With `Oc1ccccc1CN(Cc1ccco1)CC(O)COCc1ccc(Cl)cc1` (configuration not stated) the Potency was active: 18.4 µM. In the case of `COc1ccc(-c2nc(CSCC(=O)NCc3ccccc3Cl)c(C)o2)cc1OC`, the Potency is reported as inconclusive [inhibitor, single point]. With `O=C(Nc1ccncc1)c1c(Cl)cccc1Cl` the Potency was inconclusive [inhibitor, partial curve]. In the case of `COc1ccccc1C(=O)C(=O)c1ccccc1OC`, the Potency is reported as inconclusive [inhibitor, single point]. In the case of `COCCn1nnnc1C(c1ccccc1OC)N1CCN(c2ccccc2)CC1` (configuration not stated), the Potency is reported as inconclusive [inhibitor, partial curve]. In the case of `COC(=O)C1=C(Cn2cnc3ccccc32)NC(=O)NC1c1cc(C)ccc1C` (configuration not stated), the Potency is reported as inconclusive [inhibitor, partial curve]. With `CC(=O)c1c(C)[nH]c(C(=O)OCC(=O)Nc2cccnc2Cl)c1C` the Potency was inconclusive [inhibitor, single point]. With `CCN1C[C@@H]2[C@@H]3C(=O)N(Cc4ccccc4)C(=O)[C@@H]3[C@](CC)(C1=O)N2C(=O)c1ccc(F)cc1` the Potency was “inactive”.
